{
  "source": "the supplement of paper PMC11417369",
  "note": "Some of the results follow.",
  "data": [
    {"tested_on": "PF3D7_0420300 AP2 domain 1 (GST-tagged)", "assay": "gcPBM binding intensity (ln(normalized median fluorescence intensity)); higher = stronger DNA binding", "outline": "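An Agilent 4 × 180k array of primer-extended double-stranded 36-bp intergenic genomic probes, with negative controls, was incubated for 1 h with GST-tagged P. falciparum DNA-binding domains expressed in E. coli. Alexa488 anti-GST antibody detected bound protein, scanned at 488 nm. Binding intensity is the highest Masliner-normalised natural-log median intensity across replicate spots of either probe orientation.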", "values": [
      {"sequence": "AAAAAAATATTCAAAGCATGCCTATTTACACATATT [TGCATGCA_site806]", "gcPBM binding intensity (ln)": 9.28},
      {"sequence": "TTTCCCTACCAAAAGTGTACTTATACATATTTTTAT [XGTACX_site5495]", "gcPBM binding intensity (ln)": 9.17},
      {"sequence": "ATACGAAAATATTTTGCACACTATAATTATTCATAT [CACACA_site1765]", "gcPBM binding intensity (ln)": 9.55},
      {"sequence": "AAAAAAAAAAAAAAAGTGCATTAATAAATTTTAATA", "gcPBM binding intensity (ln)": 8.92},
      {"sequence": "ACATCTATGTATAATACACACACTAATATATAATTG [CACACA_site5134]", "gcPBM binding intensity (ln)": 9.62},
      {"sequence": "ACATATTATTCTTCTTGTACACATAAATTTTATAAA [XGTACX_site299]", "gcPBM binding intensity (ln)": 9.5},
      {"sequence": "TTTTTTTCATAATATACACACAAAAAAAAAAAAAAA [CACACA_site3224]", "gcPBM binding intensity (ln)": 8.81},
      {"sequence": "ATATATATATATATGTGTACATATATATATCATATG [XGTACX_site3126]", "gcPBM binding intensity (ln)": 9.09},
      {"sequence": "TATACTCATATATAAACACACAAAAAAAAAAAAAAA [CACACA_site5165]", "gcPBM binding intensity (ln)": 9.37},
      {"sequence": "TGTCATGATACATACACACACATACACATACACATA [CACACA_site2135]", "gcPBM binding intensity (ln)": 10},
      {"sequence": "TATTTAATTATATAAAATTAAATTTTTAATTCTTCC [CACACA_negctrl_site473]", "gcPBM binding intensity (ln)": 8.62},
      {"sequence": "AAACAACAAAAATGATATATATAAAATTTATAATAT [XGTACX_negctrl_site185]", "gcPBM binding intensity (ln)": 9.48},
      {"sequence": "ATGCATAAAAGAAATACACACATAAATATATAAATA [CACACA_site2163]", "gcPBM binding intensity (ln)": 9.72},
      {"sequence": "TATGGATTACACAATTGTACAAGAAAAATGTAAATA [XGTACX_site4040]", "gcPBM binding intensity (ln)": 9.28},
      {"sequence": "TCTATTATCCTTTGCACACAAAATAAATGAAAAAAT [CACACA_site3029]", "gcPBM binding intensity (ln)": 9.32},
      {"sequence": "ATATAAGTTTTTTCTCAAAAAGTATAACGAGCATGA [CACACA_negctrl_site1375]", "gcPBM binding intensity (ln)": 9.21},
      {"sequence": "ACATTATATAAATATATACATATATATATATATAAA [GTGCAC_negctrl_site115]", "gcPBM binding intensity (ln)": 8.95},
      {"sequence": "TTTGATAAATGATACACACACAATATTTATAAAATA [CACACA_site7040]", "gcPBM binding intensity (ln)": 9.72},
      {"sequence": "CCCACGTATATTTTGTGTACATAAATAAATAAATAA [XGTACX_site4046]", "gcPBM binding intensity (ln)": 9.1},
      {"sequence": "AAATATAATAATACATTGCACATATATTATATATAT [TGCATGCA_negctrl_site611]", "gcPBM binding intensity (ln)": 9.2},
      {"sequence": "TGTAATAATCTTCATTTCTTTTTTTTTTTTTTTTGT [CACACA_negctrl_site1388]", "gcPBM binding intensity (ln)": 8.96},
      {"sequence": "TAACTTAATAAAAAAAGTACATATATTTTTAATAAA [XGTACX_site2707]", "gcPBM binding intensity (ln)": 9},
      {"sequence": "AGTGAATATTACGAAACACACAAAAAAATACATTTC [CACACA_site511]", "gcPBM binding intensity (ln)": 9.64},
      {"sequence": "TATTTATTTATTTTGTTATAATTAAAATGGATACAT [XGTACX_negctrl_site387]", "gcPBM binding intensity (ln)": 9.05},
      {"sequence": "AGTAGTCTGGAGAAGAGTACATAGTATCTGGTAGCT [XGTACX_site2017]", "gcPBM binding intensity (ln)": 9.19},
      {"sequence": "CTACACACTTATAAATGTACAGGATTTAAGTATATG [XGTACX_site8245]", "gcPBM binding intensity (ln)": 9.32},
      {"sequence": "TATTATTTTAAGATTGTTTATGTAAAGAATTATGAA [CACACA_negctrl_site445]", "gcPBM binding intensity (ln)": 8.85},
      {"sequence": "AAATTATATACCACAGTGCAAAAGGCAGGTATACGT", "gcPBM binding intensity (ln)": 9.53},
      {"sequence": "TGTGTATATATGCTGGTGCAACTTTAAAAAATAATC", "gcPBM binding intensity (ln)": 9.14},
      {"sequence": "GTAGAGAAAAAAATGTGGACACAAAAAATAAAAAGG [XGTACX_site4058]", "gcPBM binding intensity (ln)": 9.41},
      {"sequence": "TATATTGCAAAAAGTACACACATAAATAAATACATA [CACACA_site6589]", "gcPBM binding intensity (ln)": 9.68},
      {"sequence": "TTTTTTTTTTTTTGCACACACATATATAAATATATA [CACACA_site3949]", "gcPBM binding intensity (ln)": 9.61},
      {"sequence": "GTTTATATGTTCATAGTGCATATATGTTGATTTATT", "gcPBM binding intensity (ln)": 9.56},
      {"sequence": "TTTTTTTTTTTTTACTGTACTTAATAAGATTGAATA [XGTACX_site2384]", "gcPBM binding intensity (ln)": 8.89},
      {"sequence": "TATAAAAAAAAAAAAAAAAAAAAAAAAAAAAAAAAA [TGCATGCA_negctrl_site42]", "gcPBM binding intensity (ln)": 8.63},
      {"sequence": "ATAAATATTATTTTACGTACATATTTATGAAGTATT [XGTACX_site8746]", "gcPBM binding intensity (ln)": 9.12},
      {"sequence": "AAATTATAAAAATGTAGTACAGACAATATATTCGTA [XGTACX_site8307]", "gcPBM binding intensity (ln)": 9.45},
      {"sequence": "CAGGAGAGAAAATATCGTACAAGCAAAAATAAGTGG [XGTACX_site8557]", "gcPBM binding intensity (ln)": 9.53},
      {"sequence": "TATGGATAAATAAATACACACATAAATTTAAATATA [CACACA_site1282]", "gcPBM binding intensity (ln)": 9.62},
      {"sequence": "GCCGCACCCAGATACGCACACAAGAAAAAAATATTC [CACACA_site3456]", "gcPBM binding intensity (ln)": 9.26},
      {"sequence": "TATAAACGCACCTACACACACAACGTAAATGCATTG [CACACA_site7120]", "gcPBM binding intensity (ln)": 9.86},
      {"sequence": "TGAACATTATAGAAAAGTACTTAGTTTTTAAAAAGA [XGTACX_site6864]", "gcPBM binding intensity (ln)": 9.06},
      {"sequence": "TATTCAAAACGGTATTGTACAAATTTTATAATTTAA [XGTACX_site6928]", "gcPBM binding intensity (ln)": 8.95},
      {"sequence": "TATTCTAGAATTTTAACACACAAGAATATAAACTTT [CACACA_site6757]", "gcPBM binding intensity (ln)": 9.32},
      {"sequence": "ATTTTTAAATACAGTACACACATGGGTTTAAATTAT [CACACA_site2884]", "gcPBM binding intensity (ln)": 9.47},
      {"sequence": "TTATTATTCTTAAGGATATAACAAAAAAGAAAAATT [CACACA_negctrl_site1402]", "gcPBM binding intensity (ln)": 9.05},
      {"sequence": "TCCTATAAACAAATTTGTACATATAAGAATATATTC [XGTACX_site3892]", "gcPBM binding intensity (ln)": 9.07},
      {"sequence": "GGTTATATGATAGGATGTACAATTAAAAGTAAATAT [XGTACX_site5083]", "gcPBM binding intensity (ln)": 9.33},
      {"sequence": "TATTTATATTTATATACACACATATATACCTATATA [CACACA_site7820]", "gcPBM binding intensity (ln)": 9.48},
      {"sequence": "GATTATTTTAGAAGTACACACATTTATATATAATAA [CACACA_site5429]", "gcPBM binding intensity (ln)": 9.35},
      {"sequence": "TAAAATATAATGATCACACATATAAACAAGTGGGTA [CACACA_site4651]", "gcPBM binding intensity (ln)": 9.45},
      {"sequence": "AAAAGGATATATGAAAGTACAAAGGTATAGTATATT [XGTACX_site7385]", "gcPBM binding intensity (ln)": 9.71},
      {"sequence": "TACAGTAAAAATAGTTGTACTTGTTTATTTCTTCTT [XGTACX_site7674]", "gcPBM binding intensity (ln)": 9.29},
      {"sequence": "TATAACAAATAAAAATGTACATATATATAATATATA [XGTACX_site6173]", "gcPBM binding intensity (ln)": 9.38},
      {"sequence": "ATCTTATCATTTTAAAGTACATAATTAATTCTTTTT [XGTACX_site3999]", "gcPBM binding intensity (ln)": 9.22},
      {"sequence": "ATAATACCAGAATAGATTTAAATGAATATTTTATTT [CACACA_negctrl_site476]", "gcPBM binding intensity (ln)": 9.14},
      {"sequence": "ATGATATATTTAATAGTGCACTAATTAAAATTATTA [GTGCAC_site9418]", "gcPBM binding intensity (ln)": 8.91}
    ]}
  ]
}
